# Measured values from the supplement of paper PMC3334620.
# In all, about 33,000 sequences were measured (“E-score (-0.5 to 0.5)”: median about -0.012, highest 2% from about 0.29 on). The list shows a part of the results.
# Molecular target: T1, Ybr033w (UniProt P38073)
# T1 sequence: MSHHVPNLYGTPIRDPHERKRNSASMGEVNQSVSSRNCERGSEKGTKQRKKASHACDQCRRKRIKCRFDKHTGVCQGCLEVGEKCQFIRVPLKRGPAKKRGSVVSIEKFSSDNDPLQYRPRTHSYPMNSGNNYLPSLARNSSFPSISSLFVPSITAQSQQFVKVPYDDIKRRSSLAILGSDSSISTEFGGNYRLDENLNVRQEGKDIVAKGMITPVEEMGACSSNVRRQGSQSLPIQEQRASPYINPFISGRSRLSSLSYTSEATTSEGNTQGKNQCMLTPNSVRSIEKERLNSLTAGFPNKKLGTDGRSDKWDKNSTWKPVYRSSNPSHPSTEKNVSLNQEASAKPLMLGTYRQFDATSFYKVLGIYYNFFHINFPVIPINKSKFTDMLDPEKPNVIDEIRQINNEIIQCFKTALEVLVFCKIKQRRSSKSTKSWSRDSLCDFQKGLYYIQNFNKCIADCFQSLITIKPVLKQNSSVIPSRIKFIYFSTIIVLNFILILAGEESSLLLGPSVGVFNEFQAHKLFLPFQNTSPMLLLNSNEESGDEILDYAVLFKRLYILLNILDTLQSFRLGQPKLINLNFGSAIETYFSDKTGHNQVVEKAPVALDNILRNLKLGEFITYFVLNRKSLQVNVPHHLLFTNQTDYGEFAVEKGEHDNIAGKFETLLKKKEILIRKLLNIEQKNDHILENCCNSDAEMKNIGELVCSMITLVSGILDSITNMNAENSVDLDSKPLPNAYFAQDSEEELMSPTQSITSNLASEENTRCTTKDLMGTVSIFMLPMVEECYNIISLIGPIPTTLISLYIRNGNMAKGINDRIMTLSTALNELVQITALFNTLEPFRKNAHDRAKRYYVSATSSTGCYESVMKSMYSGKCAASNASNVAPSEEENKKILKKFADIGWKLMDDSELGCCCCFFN
# Test: PBM E-score (8-mer binding enrichment) (E-score (-0.5 to 0.5)); higher = stronger / more preferred TF binding; most listed sequences are background and not binding sites
# Settings: protein concentration: 200 nM; construct: GST-full length
# Procedure, shortened: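 Universal all-10-mer Agilent arrays, double-stranded by primer extension on fresh or once-stripped slides, were probed with about 100-200 nM GST-tagged yeast transcription factors made by PURExpress. Fluorescent anti-GST detected bound protein, and masliner normalised the scans. E-scores from the Universal PBM Analysis Suite were given to each ungapped eight-base word pooled with its reverse complement.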
row,Sequence,PBM E-score
1,CAATAACC,0.171
2,TAAGGGTA,-0.0451
3,GGCCGGTA,-0.154
4,ATGCCGGA,-0.149
5,GGGGTCAC,-0.315
6,CAAGCGGG,-0.129
7,AACTACTT,0.202
8,CAACGAAC,0.00792
9,AGAGGAGA,-0.155
10,AGAAATTA,0.352
11,CTGCCGGC,-0.252
12,GTGGAACA,0.226
13,CTACCTAC,0.0345
14,CACAGGTA,-0.00986
15,GTGTGGCA,-0.261
16,ATCTTCAG,0.185
17,ATTTCCGG,0.298
18,AAATTGGT,0.249
19,GCAGGCTA,-0.193
20,ACGTGGGC,-0.26
21,CTGCCGGA,0.0691
22,CACCTTGG,-0.135
23,ATTACGCC,-0.112
24,ACTGAGAC,-0.148
25,ATGGCTTC,-0.109

row,Sequence,PBM E-score
1,CTGCGAGC,-0.143
2,TCGGTTAA,0.197
3,CGGGTGGA,-0.212
4,AAATATCC,0.273
5,ACGCCGAC,-0.109
6,ATCTGTCA,0.0887
7,AACCGAAT,0.0877
8,GCAAGTAA,0.166
9,CTCGATTC,-0.105
10,CCGGCTCA,0.0849
11,ATGCCGAG,-0.0146
12,ATGCAATC,0.103
13,AAGGCGCG,-0.216
14,ATTCCAAT,0.217
15,AAACCCGC,0.066
16,CACACGAA,0.184
17,CTTCTTTA,0.00566
18,CGTATGAA,0.154
19,ATGGACTA,0.0935
20,ACAGACTA,-0.117
21,ACCAGAAG,0.067
22,ATACCTTC,-0.0665
23,TGGTTACA,-0.0198
24,ACCTTCAG,-0.00645
25,GTAAATTA,0.193

row,Sequence,PBM E-score
1,CAGGCCGC,-0.233
2,CGAATCCG,-0.0573
3,CAGATATA,0.175
4,CACGCTCC,-0.18
5,ATTCAACA,0.216
6,AGCCTTTC,-0.122
7,GAAGTCAA,0.14
8,AATCCTTA,0.269
9,CCTTTAAC,0.0817
10,CCCCCCCG,-0.5
11,ATTCGCGA,0.0308
12,ATAGTCAT,-0.0534
13,AAAAGCCT,-0.149
14,CCCGGGCC,-0.306
15,GTGTATAA,-0.0348
16,GCCCTCGC,-0.155
17,ATGTGGCG,-0.018
18,CACACTCA,0.15
19,CCGACGCC,-0.121
20,AATAGGGT,0.0693
21,CCGACTGA,-0.0552
22,ATACACTA,0.174
23,AGCCTCCC,-0.254
24,ACACAAAG,0.0312
25,CAAATCAA,0.236

row,Sequence,PBM E-score
1,CCGCACAC,-0.11
2,TCGAGCGA,0.0287
3,CAAGTATG,0.137
4,CCTGATTA,0.106
5,AGATCGGA,0.179
6,ACAGTACA,0.0358
7,AATTGTCC,0.163
8,AGACAGTG,-0.0814
9,AGGGAATG,-0.0266
10,CCTGTCGC,-0.21
11,AGAATTCT,0.233
12,ATGTCTGG,-0.0339
13,GAAATCTA,0.116
14,AGCACAGA,-0.0533
15,AGACTTTA,-0.0387
16,GAATAGCA,0.0431
17,GTAGTTTA,0.198
18,CCTTTTTC,0.182
19,ACCCCGTA,-0.0435
20,AAAAAAAC,0.24
21,GAAACGAC,0.00932
22,ACCTAACA,0.0697
23,CAAGGACG,-0.242
24,ACTTGAGG,-0.209
25,GCTGCACA,-0.269

row,Sequence,PBM E-score
1,CGCCGGCA,-0.186
2,ACGGGCCA,-0.311
3,CAAAGGCC,-0.0585
4,CCCCTGCG,-0.396
5,GACTGTGC,-0.201
6,CCGACCCA,-0.348
7,CTTGAGGC,-0.163
8,AACAGTAC,0.141
9,ACGCTGGC,-0.209
10,AAGTACGC,0.0662
11,ATTGTACA,0.104
12,TTATGCAA,0.164
13,ACTGAACG,-0.0959
14,GTGACAGA,0.01
15,ACATTAAC,0.167
16,AGCGTCCT,-0.174
17,CTCCTTAC,0.146
18,ACGAGGAT,-0.0513
19,AGTTCCGC,0.21
20,GTTTTTCA,0.0689
21,ATGGGATA,0.0325
22,ATCGCATA,0.198
23,GAAAACCA,-0.0423
24,ATCCAAAT,0.0469
25,TGACTCAA,-0.0145

row,Sequence,PBM E-score
1,ATTCCCAA,0.267
2,CCCTCTTC,-0.359
3,GCGGGCCC,-0.324
4,AGATTCCG,0.153
5,GGTCCTTA,-0.0676
6,ACTGCTCA,0.122
7,AGAGAGCT,-0.245
8,CCAGGCCG,-0.137
9,CGCACATA,-0.204
10,CAAAAGGA,0.168
11,AGTTGGGG,-0.126
12,ATTCAAGA,0.191
13,GACGAACA,0.0851
14,CGCTAGTC,-0.318
15,GGCAGAAA,0.247
16,GTCCTCAC,-0.13
17,AACGGCTA,0.0615
18,AAGCAATA,0.13
19,ATAGGCCC,-0.207
20,AAGTACAC,0.116
21,CTCGTCTA,-0.0771
22,ATCCAGCA,0.029
23,GCGTATAC,0.0475
24,GGTCAGCA,0.0405
25,CCGCATAC,0.0488

row,Sequence,PBM E-score
1,ATGGAGTA,0.0791
2,AGGAGAAC,-0.128
3,CGTTGTAC,0.101
4,GTGAGGGA,-0.267
5,TAAGCACA,0.145
6,AATTCTGA,0.232
7,GTCCTCAA,0.0693
8,CGGGTCCC,-0.343
9,ATCCCATG,-0.106
10,ATGTGCTC,-0.0237
11,GACGCGGA,-0.113
12,CAACGTCG,-0.0717
13,CTCAAGGC,-0.0255
14,ATACACTC,0.0996
15,ACAGCCGG,0.0375
16,ACCAAGCA,-0.0203
17,CATATTAA,0.347
18,CCATTTTC,0.161
19,ACCGCCTA,-0.146
20,ACAGCACC,-0.205
21,AGTTATGC,0.0871
22,GGTTTGGA,-0.0328
